# Screen size: about 310,000 compounds; about 14,000 (4.5%) showed an effect of 50% or more. Effects have a minus sign here. The list shows a part of the results.
# Target: human ether-à-go-go-related gene (hERG) potassium channel (human, UniProt Q12809)
# Test: primary screen, population patch clamp on CHO cells stably expressing hERG
# 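Further: peak tail current of the secondary pulse compared with the same well before compound.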
# human ether-à-go-go-related gene (hERG) potassium channel, sequence (Q12809 whole entry, looked up): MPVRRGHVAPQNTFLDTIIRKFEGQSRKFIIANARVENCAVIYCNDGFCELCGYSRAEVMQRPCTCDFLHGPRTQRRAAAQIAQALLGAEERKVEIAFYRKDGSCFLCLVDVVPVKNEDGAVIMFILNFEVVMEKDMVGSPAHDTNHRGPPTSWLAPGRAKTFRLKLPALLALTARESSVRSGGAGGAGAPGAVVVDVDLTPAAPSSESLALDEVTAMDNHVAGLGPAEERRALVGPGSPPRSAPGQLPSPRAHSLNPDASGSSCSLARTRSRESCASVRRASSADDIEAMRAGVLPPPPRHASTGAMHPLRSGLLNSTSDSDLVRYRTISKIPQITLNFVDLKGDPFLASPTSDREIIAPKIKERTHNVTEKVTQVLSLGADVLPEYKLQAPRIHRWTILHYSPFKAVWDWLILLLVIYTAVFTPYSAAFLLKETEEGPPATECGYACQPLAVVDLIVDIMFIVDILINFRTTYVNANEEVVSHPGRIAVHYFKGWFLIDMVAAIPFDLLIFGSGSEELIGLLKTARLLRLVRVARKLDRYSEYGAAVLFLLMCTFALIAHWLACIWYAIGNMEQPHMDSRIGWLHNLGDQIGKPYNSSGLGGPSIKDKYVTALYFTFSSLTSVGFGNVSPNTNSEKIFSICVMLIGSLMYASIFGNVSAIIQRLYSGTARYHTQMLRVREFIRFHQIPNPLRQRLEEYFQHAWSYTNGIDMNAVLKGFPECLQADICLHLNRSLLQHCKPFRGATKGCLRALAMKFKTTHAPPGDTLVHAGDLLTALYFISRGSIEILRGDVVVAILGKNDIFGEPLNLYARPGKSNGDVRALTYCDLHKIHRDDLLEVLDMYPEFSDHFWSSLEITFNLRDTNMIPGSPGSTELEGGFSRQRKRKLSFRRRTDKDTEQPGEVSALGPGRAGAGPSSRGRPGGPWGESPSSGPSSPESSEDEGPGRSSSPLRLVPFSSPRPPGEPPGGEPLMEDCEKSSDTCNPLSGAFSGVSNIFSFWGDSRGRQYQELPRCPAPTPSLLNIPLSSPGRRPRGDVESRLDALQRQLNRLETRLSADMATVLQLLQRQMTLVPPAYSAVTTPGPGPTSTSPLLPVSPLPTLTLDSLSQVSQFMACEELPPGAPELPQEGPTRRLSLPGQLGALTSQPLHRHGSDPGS
row,Compound,"hERG current change (%, negative = inhibition) at 10uM [%]"
1,CCOc1ccc(-c2nc(-c3ccccc3C)no2)cc1,11.4
2,C=CCSc1nnc2nc3c(nn12)c1cc(C)ccc1n3CC=C,-55.1
3,CCOc1ccc(C(=O)NC(=S)NCc2cccnc2)cc1[N+](=O)[O-],-2.86
4,CC1CN(C(=O)C(C)N2C(=O)c3ccccc3C2=O)CC(C)O1 (stereo not shown),-3.23
5,CC(C)(C)C(=O)CSc1ncnc2sc3c(c12)CCC3,1.77
6,C#Cc1ccc(CN2CCN(CCCc3ccccc3)C(CCO)C2)cc1 (stereo not shown),-69.8
7,CCOc1ccccc1-c1nc2c(s1)CCc1onc(-c3ccc(OC)cc3)c1-2,13.3
8,CC(C)(C)C(=O)[C@H]1[C@H](c2ccccc2)[C@@]2(N=C(c3ccccc3)OC2=O)C2c3ccccc3C=NN21 (stereo partly shown),10.2
9,Cc1cc(C)c2c(N)c(C(=O)c3ccc(Cl)c(Cl)c3)sc2n1,12.4
10,CC1CCC(C(C)C)C(OC(=O)C[n+]2cc(-c3ccc(Cl)cc3)n3c2CCC3)C1.[Cl-] (stereo not shown),-77.1
11,Cc1ccc(N2C(N)=C(C#N)C(c3cc(CN4CCOCC4)cs3)C3=C2CC(C)(C)CC3=O)cc1 (stereo not shown),21.1
12,O=C(Oc1c(Br)cc(Br)c2cccnc12)N1CCCCC1,-18.1
13,C=CCOc1ccc(/C(O)=C2\C(=O)C(=O)N(CCOC)C2c2cccnc2)cc1 (stereo not shown),-4.88
14,COc1ccccc1OP(=O)(Nc1cccnc1)Oc1ccccc1OC,7.37
15,N#Cc1ccc(COC(=O)CSc2nnc(C3CCCCC3)n2N)cc1,-43.2
16,CN(C)S(=O)(=O)c1ccc(C(=O)NCCSc2ccccc2)cc1,-22.2
17,COc1ccc(/C=N/Nc2nnc(Cc3ccccc3)c(=O)[nH]2)cc1OC,-61.4
18,CC(=O)c1c[nH]c(C(=O)NCc2ccccc2Cl)c1,5.83
19,CC1CCCCC1NC(=S)Nc1cccc(S(=O)(=O)N(C)C)c1 (stereo not shown),27.6
20,CCC1Sc2ccc(S(=O)(=O)Nc3ccc(OC)c(OC)c3)cc2NC1=O (stereo not shown),-6.86
21,C=CC(C)Sc1nc2c(c(=O)n(C)c(=O)n2C)n1Cc1ccccc1Cl (stereo not shown),0.24
22,O=[N+]([O-])c1cccc2ncccc12,11.1
23,COc1cc(C(=O)Nc2ccc(N3CCCS3(=O)=O)cc2)c([N+](=O)[O-])cc1OC,-10.8
24,O=C(NCCc1nc(-c2ccc(F)cc2)no1)c1ccc(F)cc1,-16.3
25,Cc1ccc(N(C(=O)c2csnn2)C(C(=O)NC2CCCCC2)c2cccnc2)c(C)c1 (stereo not shown),-5.38
26,CC1CCCCC12NC(=O)N(CC(=O)NCc1ccc3c(c1)OCO3)C2=O (stereo not shown),28.8
27,C=CCNc1nc(C(=O)OCC)nc2ccccc12,11.1
28,CC1Cc2cc(S(=O)(=O)N3CCC(C(=O)N4CCCCC4)CC3)ccc2N1C(=O)C1CC1 (stereo not shown),0.0803

row,Compound,"hERG current change (%, negative = inhibition) at 10uM [%]"
1,Cc1cccc2c1cnn2C(=O)CCC(=O)NCC(C)c1ccccc1 (stereo not shown),14.9
2,NC(=O)c1nn(-c2ccccc2)nc1NC(=O)CN1CCOCC1,1.46
3,CN(C)/C=C(/C(=O)c1ccc(Cl)cc1)S(=O)(=O)c1ccccc1,2.77
4,CCOC(=O)C1=C(COC(=O)CCc2ccc(CC)cc2)NC(=O)NC1C (stereo not shown),-8.37
5,CC(C)(C)OC(=O)N[C@H](/C=C/c1ccccc1)C(=O)OC(C)(C)C,-1.94
6,O=C(O)CSc1nc(-c2ccccc2)cc(=O)[nH]1,8.56
7,Cc1cc(=O)[nH]c(SCC(=O)N2c3ccccc3CC2C)n1 (stereo not shown),8.91
8,COC(=O)CSc1nc2c(cnn2-c2ccc(F)cc2)c(=O)[nH]1,22.1
9,CCC(C)(C)NC(=O)CN(C(=O)CNS(=O)(=O)c1ccccc1)c1ccccc1,14.3
10,CCOC(=O)C1=C(O)C(=O)N(c2ccc(S(N)(=O)=O)cc2)C1c1ccc(Br)cc1 (stereo not shown),3.66
11,CN(C)CCCNC(=O)CC(c1ccc(F)cc1)c1ccco1 (stereo not shown),-37.3
12,O=C(O)C1CCC(N2C(=O)c3c(Cl)c(Cl)c(Cl)c(Cl)c3C2=O)CC1 (stereo not shown),11.8
13,Cc1ccc(OCC(=O)NCc2ccco2)cc1C,4.64
14,COc1ccc(C2=NO[C@@H]3C(=O)N(c4cccc(C)c4C)C(=O)[C@H]23)cc1OC,4.33
15,Cc1ccc(NC(=O)c2cc(S(=O)(=O)NCCC3=CCCCC3)ccc2F)cc1,3.06
16,CC1CCc2c(sc(NC(=O)c3c([N+](=O)[O-])cnn3C)c2C(N)=O)C1 (stereo not shown),9.17
17,Cc1ccccc1Nc1nc(N)nc(COC(=O)c2ccc(S(=O)(=O)N(C)C)cc2)n1,-3.72
18,Cc1ccc(CC2C(=O)N(c3cc(C)ccc3C)C(=O)C2C)cc1 (stereo not shown),-1.06
19,COCCN(CCOC)C(=S)Nc1ccccc1,12.4
20,O=C1CC(C(=O)N2CCC3(CC2)OCCO3)CN1CCc1ccccc1 (stereo not shown),18.7
21,Cc1cccc(-c2nnn(CC/C(N)=N/O)n2)c1,1.26
22,NNC(=O)CN1C(c2cccc(Cl)c2)=Nc2ccc(Br)cc2C1c1ccccc1 (stereo not shown),-27.4
23,N#CC(c1ccc(Cl)cc1)c1nc2ccccc2nc1C(F)(F)F (stereo not shown),11.5
24,Cc1ccc(-c2nc3cc(Br)cnc3nc2-c2ccc(C)cc2)cc1,-9.29
25,Cc1ccc(NC(=O)N(Cc2cc3cc(C)cc(C)c3[nH]c2=O)CC2COCCO2)cc1 (stereo not shown),-5.07
26,COc1ccc(-c2oc3ccccc3c(=O)c2OC(C)=O)cc1,-11.3
27,COc1ccc(-c2cn3cccnc3n2)cc1NC(=O)c1ccc(Br)o1,-10.7

# Source: publication PMC4336329 (PLoS ONE, 2015)
